Hit rate of the full screen: of about 110,000 compounds, about 230 (0.21%) showed an effect of 50% or more. The list shows a part of the results.
target: DPAP1 (Plasmodium falciparum, UniProt Q8IIJ9); experiment: primary screen, percent inhibition; read by cleavage of a fluorogenic dipeptide substrate; higher = more effect of the substance; parameters: species or system P. falciparum D10 trophozoite lysates; single well
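Further: 30 min substrate incubation versus DMSO and 10 µM JCP410 controls.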

Chain of DPAP1 (Q8IIJ9 whole entry, looked up): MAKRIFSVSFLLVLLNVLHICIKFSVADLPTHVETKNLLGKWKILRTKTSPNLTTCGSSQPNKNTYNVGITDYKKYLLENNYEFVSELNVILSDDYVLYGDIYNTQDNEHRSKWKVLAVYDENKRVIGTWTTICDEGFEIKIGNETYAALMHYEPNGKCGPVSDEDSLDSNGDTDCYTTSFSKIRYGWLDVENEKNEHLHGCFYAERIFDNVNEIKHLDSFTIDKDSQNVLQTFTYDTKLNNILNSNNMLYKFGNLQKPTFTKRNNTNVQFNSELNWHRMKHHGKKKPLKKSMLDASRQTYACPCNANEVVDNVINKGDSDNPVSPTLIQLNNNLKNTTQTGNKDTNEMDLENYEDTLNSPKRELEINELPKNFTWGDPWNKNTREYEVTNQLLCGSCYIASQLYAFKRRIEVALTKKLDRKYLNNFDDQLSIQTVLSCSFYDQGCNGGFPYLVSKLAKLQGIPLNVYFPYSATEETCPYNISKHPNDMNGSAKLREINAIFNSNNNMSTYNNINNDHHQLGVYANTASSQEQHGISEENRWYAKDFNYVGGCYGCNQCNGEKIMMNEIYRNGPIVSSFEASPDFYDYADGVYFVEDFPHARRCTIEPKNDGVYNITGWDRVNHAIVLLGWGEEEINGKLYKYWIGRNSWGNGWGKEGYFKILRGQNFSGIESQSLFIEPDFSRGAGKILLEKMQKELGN

SMILES	% Inhibition @ 10 uM
COc1cc2c(cc1OC)C1=C(C#N)CC/C(=N\C(=O)c3ccccc3F)N1CC2	2.24%
COc1ccc(C2=N/C(=C\c3ccc(C(C)C)cc3)C(=O)O2)cc1	3.58%
O=C(O)c1ccc(NC(=O)c2ccco2)cc1	-8.3%
O=[N+]([O-])c1ccc(N2CCN(Cc3ccccc3C(F)(F)F)CC2)cc1	-1.92%
Cc1cc(O)c2c(C)c(CC(=O)NCc3ccc4c(c3)OCO4)c(=O)oc2c1	4.13%
CCOc1cc(S(=O)(=O)NCc2cccnc2)c(C)cc1C	3.35%
O=C(CCC(=O)OCC(Cl)=C(Cl)Cl)Nc1ccc(Cl)cc1Cl	-1.76%
O=C1Nc2ccccc2C1(O)C(F)(F)F (centres unmarked)	4.17%
CCC(=O)Nc1ccc(NC(=O)c2ccccc2)cc1C	-3.37%
Oc1ccc(-c2nc3ccc4ccccc4c3c3c2CCCC3)cc1O	-1.97%
Cc1nc(C)c(NC(=O)Nc2ccc(F)cc2)cc1NC(=O)Nc1ccc(F)cc1	6.61%
COc1ccc(NC(=O)Nc2ccc(Oc3ccccc3)cc2)cc1OC	0.161%
CC(=O)c1cc2c(cc1NC(=O)c1cccc(Cl)c1)OCO2	-1.61%
c1ccc(-c2nnc3sc(-c4csc5c4CCCC5)nn23)cc1	-3.64%
CN(CCCNS(=O)(=O)c1ccc(-c2ccc(O)nn2)s1)Cc1ccccc1	2.42%
COc1ccccc1C(=O)N/C(=C\c1ccccc1)C(=O)NCCC(=O)O	2.09%
COc1ccccc1C(=O)Nc1ccc2oc(-c3ccc(C(C)(C)C)cc3)nc2c1	-4.02%
Cc1ccc(-c2nc3ccccc3c(=O)n2-c2nccs2)cc1	-4.16%
Cc1cc(C(F)(F)F)nn1CC(=O)N1CCCc2ccccc21	0.0538%
Cn1c(C(=O)NCCc2c[nH]c3ccccc23)cc2sccc21	-3.08%
COc1cc2c(cc1OC)C(C(=O)N1CCC(C)CC1)C(c1cccnc1)N(C)C2=O (centres unmarked)	1.83%
COc1ccccc1C(=O)Nc1ccccc1NC(=O)c1ccccc1OC	1.83%

SMILES	% Inhibition @ 10 uM
C=CCn1c(CNC(=O)c2cc(OC)c(OC)c(OC)c2)nc2ccccc21	2.64%
O=C(O)CCCCCCNC(=O)c1cncc(O)c1	-1.15%
COc1ccc2c(c1)CCc1sc(NC(=O)c3ccco3)nc1-2	4.84%
Cc1cc(NC(=O)CSCc2nc(-c3cccc(Cl)c3)oc2C)no1	-5.8%
O=C(C(c1ccccc1)c1ccccc1)N1CCCC1	4.67%
c1ccc(-c2cc(-c3ccccc3)n3nnnc3n2)cc1	1.33%
CCOC(=O)C1=C(N)n2c(s/c(=C/c3ccccc3)c2=O)=C(C(=O)OCC)C1c1ccccc1 (centres unmarked)	-0.053%
COCCCN(Cc1ccco1)C(=O)NCc1noc2ccccc12	-10%
O=C(C1=C(O)C(=O)N(c2ccccn2)C1c1ccccc1F)c1ccc(Cl)cc1 (centres unmarked)	2.82%
C=C1Cn2c(nc3sc4c(c3c2=O)CCCC4)S1	2.36%
CC(C)c1ccc(C2C(C(=O)c3ccccc3)=C(O)C(=O)N2CC2CCCO2)cc1 (centres unmarked)	2.49%
CCC(=O)NC1=NC(=O)/C(=C/c2cn(C(=O)CC)nc2-c2ccccc2)S1	4.01%
CCCc1nc2ccc(C)cc2c(C(=O)O)c1CC	-5.36%
CC1(C)CC(=O)c2c(O)cc(=O)oc2C1	-5.59%
Cc1ccc2oc3c(c(=O)c2c1)C(c1ccc(F)cc1)N(c1nccs1)C3=O (centres unmarked)	2.1%
CCOC(=O)c1cc(-c2nnc(-c3cccc(C)c3)o2)c(C)nc1C	5.17%
CCOC(=O)c1sc2ncn(CC(=O)N3CCOCC3)c(=O)c2c1C	-6.69%
O=C(O)Cn1c(=O)c2cc3c(=O)n(CC(=O)O)c(=O)c3cc2c1=O	-1.29%
COc1ccc(CNC(=O)c2sc3nc(-c4ccc(F)cc4)ccc3c2N)cc1	1.86%
CCNC(=O)C1CCCN(S(=O)(=O)N2CCOCC2)C1 (centres unmarked)	-2.86%
COc1ccc(C(=O)Nc2ccc(-c3nc4ccccc4o3)cc2)cc1	4.98%
CC(=O)NCCc1ccc(S(=O)(=O)NCc2ccc3c(c2)OCO3)cc1	-1.33%

SMILES	% Inhibition @ 10 uM
O=C(Nc1ccc(Oc2ccccc2)cc1)C(F)(F)F	-1.61%
COc1ccccc1C(=O)N1CCN(C(=O)c2cc(OC)c(OC)c(OC)c2)CC1	-2.26%
O=C(CN1C(=O)S/C(=C/c2c[nH]c3ccccc23)C1=O)N1CCCC1	1.87%
Cc1cccc(OCC(=O)Nc2ccc(S(=O)(=O)Nc3cc(C)on3)cc2)c1	-14.4%
CCSc1nc2n(n1)C(c1ccccc1C)C1=C(O)CCCC1=N2 (centres unmarked)	-3.45%
Brc1ccc(CSc2nccn2Cc2ccccc2)cc1	-0.233%
Cc1cc(C)cc(NC(=O)C23CC4CC(C2)CC(n2cnc(Br)n2)(C4)C3)c1	2.43%
Cc1ccccc1S(=O)Cc1ccc(C(=O)NCc2ccc(OC(C)C)cc2)o1 (centres unmarked)	-1.57%
COc1ccc(CC(=O)Nc2sc3c(c2C(N)=O)CCCC3)cc1	2.13%
CCc1ccc(CNCc2c(C(=O)O)c(C)n(Cc3ccccc3F)c2C)cc1	-7.36%
CCc1ccc(NC(=O)CCCOc2ccccc2C)cc1	-1.92%
COc1ccc(-c2onc3ccc4c5ccccc5oc4c23)cc1OC	-7.33%
CCCOc1ccc(-c2csc3ncn(CCC)c(=O)c23)cc1	-5.95%
Cc1ccc(OCC(=O)Nc2cccc(Cl)c2)cc1C	-2.99%
COCC(C)NCc1cc(F)ccc1F (centres unmarked)	1.84%
COCCCNC(=O)Cn1cc(C(=O)C2CC2)c2ccccc21	1.62%
COc1ccc(OC)c([C@H]2NCC[C@@]3(O)CCCC[C@H]23)c1	-3.62%
COC1CCCCC1NC1CCCCC1 (centres unmarked)	-3.35%
COC(=O)C1=CNC=C(C(=O)OC)C1c1cccc(OC)c1OC	12%
Cc1ccsc1CCNS(=O)(=O)c1ccc2[nH]c3c(c2c1)CCCC3	-6.17%
O=C(O)CCC(=O)N1CCc2ccccc21	1.33%

Source: paper PMC6919601, “Identification of Plasmodium dipeptidyl aminopeptidase allosteric inhibitors by high throughput screening” (PLoS ONE, 2019)
